The list shows a part of the results. At the low end of the ranking the order means little.

This experiment addresses GST-SBP-SLBP (stem-loop binding protein) (UniProt Q14493). The experiment can be described thus: targeted RNA Bind-n-Seq.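 Note: DESeq read counts versus GST-SBP nonspecific binding control pulldown.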 Conditions: RBNS binding buffer: 25 mM Tris pH 7.5, 150 mM KCl, 3 mM MgCl2, 0.1% Tween, 0.5 mg/mL BSA, 1 mM DTT; 27 nM protein, 750 pM RNA pool; temperature not stated; high values mean tight binding.
“GGUCACGUCUCAAUCAACUCAAUCUCCAGGGAAAACCCUGGCAAACUCAACAGCUCGCAGUCAAG”: the binding signal (log2 fold change) came out at 0.176.
With “GGUCACGUCUCAAUCAACUCAAUCUCAGGAGUUUCCUCCUGCUAUCUCAACAGCUCGCAGUCAAG”, the binding signal (log2 fold change) worked out at 0.115.
Consider “GGUCACGUCUCAAUCAACUCAUCUUCAGGAGUUUUCUCCUGUAAUCUCAACAGCUCGCAGUCAAG”, for which the binding signal (log2 fold change) amounted to 0.0587.
As to “GGUCACGUCUCAAUCAACUCAUCCGCAGGAGUUUUCUCCUGGUAUUUCAACAGCUCGCAGUCAAG”, the binding signal (log2 fold change) is -0.258.
In the case of “GGUCACGUCUCAAUCAACUCUUCCCCAGGAGUUUCCUCCUGUAAAUUCAACAGCUCGCAGUCAAG”, the binding signal (log2 fold change) turned out to be 0.00759.
“GGUCACGUCUCAAUCAACUCCUUAGAGGGGGGGAAAACCCCUUUACCCUCGUUAUCAACAGCUCGCAGUCAAG”: the binding signal (log2 fold change) amounted to 0.302.
For the sequence “GGUCACGUCUCAAUCAACUCUUCUUCCAGGGAAAACCCUGGUUUUCUCAACAGCUCGCAGUCAAG”, the binding signal (log2 fold change) was -0.292.
Take “GGUCACGUCUCAAUCAACUCAUUUUCAGGAGUUUGCUCCUGCUAAUUCAACAGCUCGCAGUCAAG”: the binding signal (log2 fold change) was -0.13.
Then “GGUCACGUCUCAAUCAACUCUUUUCCCAGGGAAAUCCCUGGCUUACUCAACAGCUCGCAGUCAAG”, with 0.0663.
“GGUCACGUCUCAAUCAACUCAACUCCAGGAGUUUCCUCCUGUAUACUCAACAGCUCGCAGUCAAG”: the binding signal (log2 fold change) was determined as 0.179.
Then “GGUCACGUCUCAAUCAACUCUUCCCCCAGGGAAAUCCCUGGUAAAUUCAACAGCUCGCAGUCAAG”, with 0.164.
Then “GGUCACGUCUCAAUCAACUCUUCGUCCAGGGAAAGCCCUGGUAUUCUCAACAGCUCGCAGUCAAG”, with 0.118; and “GGUCACGUCUCAAUCAACUCAAUUUCAGGAGUUUACUCCUGUUUACUCAACAGCUCGCAGUCAAG”, with 0.058; and “GGUCACGUCUCAAUCAACUCAAGUCCCAGGGAAAUCCCUGGUUUAUUCAACAGCUCGCAGUCAAG”, with -0.149.
For “GGUCACGUCUCAAUCAACUCAUUCGAGGGGGGGAAAACCCCUUUACCCUCAACAUCAACAGCUCGCAGUCAAG”, the binding signal (log2 fold change) was -0.113.
Then “GGUCACGUCUCAAUCAACUCCUCCGAGGGGGGGAAAACCCCUUUACCCUCAAAAUCAACAGCUCGCAGUCAAG”, with 0.0269; and “GGUCACGUCUCAAUCAACUCACUAGAGGGGGGGAAAACCCCUUUGCCCUCCACAUCAACAGCUCGCAGUCAAG”, with 0.209.
With “GGUCACGUCUCAAUCAACUCAGUUUCCAGGGAAAGCCCUGGCUUAUUCAACAGCUCGCAGUCAAG”, the binding signal (log2 fold change) worked out at 0.0972.
With “GGUCACGUCUCAAUCAACUCAUCCUCAGGAGUUUACUCCUGUAUAUUCAACAGCUCGCAGUCAAG”, the binding signal (log2 fold change) is -0.204.
Then “GGUCACGUCUCAAUCAACUCCAAAGAGGGGGGGAAAACCCCUUUGCCCUCCAAUUCAACAGCUCGCAGUCAAG”, with 0.304; and “GGUCACGUCUCAAUCAACUCUUUCUCAGGAGUUUCCUCCUGUAUACUCAACAGCUCGCAGUCAAG”, with -0.0391; and “GGUCACGUCUCAAUCAACUCUUCUCCCAGGGAAAACCCUGGUUAUUUCAACAGCUCGCAGUCAAG”, with 0.0327.
Turning to “GGUCACGUCUCAAUCAACUCCCAAGAGGGGGGGAAAACCCCUUUGCCCUCACUUUCAACAGCUCGCAGUCAAG”, the binding signal (log2 fold change) was -0.405.
As for “GGUCACGUCUCAAUCAACUCAGUUUCAGGAGUUUCCUCCUGUAUUUUCAACAGCUCGCAGUCAAG”, the binding signal (log2 fold change) is -0.116.
On to “GGUCACGUCUCAAUCAACUCUUCUUCCAGGGAAAGCCCUGGCAUACUCAACAGCUCGCAGUCAAG”, for which the binding signal (log2 fold change) came to 0.0417.
Turning to “GGUCACGUCUCAAUCAACUCUCUAGAGGGGGGGAAAACCCCUUUGCCCUCAAACUCAACAGCUCGCAGUCAAG”, the binding signal (log2 fold change) is -0.338.
Take “GGUCACGUCUCAAUCAACUCCUUAGAGGGGGGGAAAACCCCUUUACCCUCAUUAUCAACAGCUCGCAGUCAAG”: the binding signal (log2 fold change) is -0.00522.
For “GGUCACGUCUCAAUCAACUCUUAAGAGGGGGGGAAAACCCCUUUACCCUCGUAUUCAACAGCUCGCAGUCAAG”, the binding signal (log2 fold change) was -0.00706.
Take “GGUCACGUCUCAAUCAACUCAACAGAGGGGGGGAAAACCCCUUUACCCUCAACAUCAACAGCUCGCAGUCAAG”: the binding signal (log2 fold change) is -0.407.
In the case of “GGUCACGUCUCAAUCAACUCUACUUCCAGGGAAAGCCCUGGUUAACUCAACAGCUCGCAGUCAAG”, the binding signal (log2 fold change) is 0.0162.
Regarding “GGUCACGUCUCAAUCAACUCAAUCUCAGGAGUUUGCUCCUGCUAUCUCAACAGCUCGCAGUCAAG”, the binding signal (log2 fold change) stood at 0.192.
In the case of “GGUCACGUCUCAAUCAACUCAAUCUCAGGAGUUUUCUCCUGUUAUCUCAACAGCUCGCAGUCAAG”, the binding signal (log2 fold change) turned out to be 0.0472.
In the case of “GGUCACGUCUCAAUCAACUCUUUUUCCAGGGAAACCCCUGGUUUAUUCAACAGCUCGCAGUCAAG”, the binding signal (log2 fold change) was -0.105.
For the sequence “GGUCACGUCUCAAUCAACUCCUUAGAGGGGGGGAAAACCCCUUUGCCCUCCAAAUCAACAGCUCGCAGUCAAG”, the binding signal (log2 fold change) was -0.0252.
Regarding “GGUCACGUCUCAAUCAACUCAAUCCCCAGGGAAAACCCUGGCAUACUCAACAGCUCGCAGUCAAG”, the binding signal (log2 fold change) is 0.351.
On to “GGUCACGUCUCAAUCAACUCAACUUCCAGGGAAAGCCCUGGCUUUUUCAACAGCUCGCAGUCAAG”, for which the binding signal (log2 fold change) turned out to be 0.142.
As to “GGUCACGUCUCAAUCAACUCAAUCUCAGGAGUUUACUCCUGCUUUUUCAACAGCUCGCAGUCAAG”, the binding signal (log2 fold change) is -0.242.
Then “GGUCACGUCUCAAUCAACUCUUCUUCCAGGGAAACCCCUGGCAAACUCAACAGCUCGCAGUCAAG”, with 0.0286; and “GGUCACGUCUCAAUCAACUCAGUCUCCAGGGAAAGCCCUGGCUAAUUCAACAGCUCGCAGUCAAG”, with -0.355; and “GGUCACGUCUCAAUCAACUCCAAAGAGGGGGGGAAAACCCCUUUACCCUCCGUUUCAACAGCUCGCAGUCAAG”, with 0.395.
Regarding “GGUCACGUCUCAAUCAACUCAAAAGAGGGGGGGAAAACCCCUUUACCCUCAUCGUCAACAGCUCGCAGUCAAG”, the binding signal (log2 fold change) is -0.161.
Regarding “GGUCACGUCUCAAUCAACUCAUUCCCAGGAGUUUCCUCCUGUUAUCUCAACAGCUCGCAGUCAAG”, the binding signal (log2 fold change) was 0.136.
For “GGUCACGUCUCAAUCAACUCAACAGAGGGGGGGAAAACCCCUUUGCCCUCCAUAUCAACAGCUCGCAGUCAAG”, the binding signal (log2 fold change) was -0.0653.
As for “GGUCACGUCUCAAUCAACUCCCUAGAGGGGGGGAAAACCCCUUUGCCCUCAUUAUCAACAGCUCGCAGUCAAG”, the binding signal (log2 fold change) was -0.0293.
With “GGUCACGUCUCAAUCAACUCUUCUUCCAGGGAAAACCCUGGCUAUCUCAACAGCUCGCAGUCAAG”, the binding signal (log2 fold change) was found to be 0.132.
For “GGUCACGUCUCAAUCAACUCUUCUUCCAGGGAAACCCCUGGUAUUUUCAACAGCUCGCAGUCAAG”, the binding signal (log2 fold change) was -0.245.
Then “GGUCACGUCUCAAUCAACUCAGUCUCAGGAGUUUUCUCCUGCUUUUUCAACAGCUCGCAGUCAAG”, with 0.0224.
